Laboratory results reported in patent US9452154B2, “Methods for treating HCV” (Gilead Sciences, Inc., priority 2010, dated 2016).

Legend:
Assay type in all cases: cell-based
[1] = system: HCV genotype 1b replicon cells (Huh-luc); test: Biological Example 2: EC50 determination in Huh-luc replicon cells
Protocol: (§1) Compounds were serially diluted 1:3 in 100% DMSO (Sigma). These serial dilutions were added to the cells at a 1:200 dilution to achieve a final concentration of 0.5% DMSO in a total volume of 200 μL. […] HCV replication levels in drug-treated samples were expressed as a percentage of those in untreated controls (defined as 100%), and data were fit to the logistic dose response equation y=a/(1+(x/b)c) using XLFit4 software (IDBS, Emeryville, Calif.). EC50 values were calculated from the resulting equations as described previously.

[2] = system: HCV genotype 1b replicon cells (Huh-luc); test: Biological Example 5: antiviral activity assay in HCV Huh-luc replicon cells
Protocol: Compounds were serially diluted 1:2 in 100% DMSO. Serial dilutions were added to the cells at a 1:200 dilution to achieve a final concentration of 0.5% DMSO in a total volume of 200 μL.
EC50 values were calculated by nonlinear regression analysis of replicate data sets using XLfit 4 software (IDBS, Emeryville, Calif.).

[3] = system: HCV genotype 1b replicon cells (Huh-luc); test: Biological Example 1: EC50 determination in Huh-luc replicon cells; conditions: Hepatitis C virus, 72 h, 3 days
Protocol: as §1, with “Compounds 1 and 2” for “Compounds”, “previously (Delaney, W. E., et al., Antimicrobial Agents Chemotherapy, 45(6):1705-1713 (2001)).” for “previously.”

[4] = Hepatitis C virus, 72 h, 3 days, read-out: EC50

Compound | EC50 [2, 4] | EC50 [3] | further results
NC(=O)c1ncn([C@@H]2O[C@H](CO)[C@@H](O)[C@H]2O)n1 [Ribavirin, 1-β-D-ribofuranosyl-1H-1,2,4-Triazole-3-carboxamide, reference compound] | – | – | antiviral activity ([1]; up to concentrations which were beginning to show cytotoxicity): no antiviral activity
COc1ccc2c(O[C@@H]3C[C@H]4C(=O)N[C@]5(P(=O)(O)Cc6c(F)cccc6F)C[C@H]5CCCCCCC[C@H](NC(=O)OC5CCCC5)C(=O)N4C3)cc(-c3csc(NC(C)C)n3)nc2c1Cl [Compound 2, (2R,6S,13aR,14aS,16aS)-2-(8-chloro-2-(2-(isopropylamino)thiazol-4-yl)-7-methoxyquinolin-4-yloxy)-6-(cyclopentyloxycarbonylamino)-5,16-dioxooctadecahydrocyclopropa[e]pyrrolo[1,2-a][1,4]diazacyclopentadecin-14a-yl(2,6-difluorobenzyl)phosphinic acid] | 5 nM | 11 ± 3 nM | –
COC(=O)N[C@H](C(=O)N1CC2(CC2)C[C@H]1c1ncc(-c2ccc3c(c2)C(F)(F)c2cc(-c4ccc5nc([C@@H]6[C@H]7CC[C@H](C7)N6C(=O)[C@@H](NC(=O)OC)C(C)C)[nH]c5c4)ccc2-3)[nH]1)C(C)C [Compound 6, (1-{3-[6-(9,9-Difluoro-7-{2-[5-(2-methoxycarbonylamino-3-methyl-butyryl)-5-aza-spiro[2.4]hept-6-yl]-3H-imidazol-4-yl}-9H-fluoren-2-yl)-1H-benzoimidazol-2-yl]-2-aza-bicyclo[2.2.1]heptane-2-carbonyl}-2-methyl-propyl)-carbamic acid methyl ester] | 0.0018 ± 0.0007 nM | – | –
CC(C)C(=O)OCC1O[C@@H](n2ccc(N)nc2=O)[C@](C)(F)[C@@H]1OC(=O)C(C)C (stereo partly drawn) [Compound 7] | 1240 ± 341 nM | – | –
IFN-α [reference compound] | – | – | EC50 ([2]; IFN-α in Units per mL): 0.05 U/ml ± 0.04
Fc1ccccc1-c1nc2ccn(Cc3ccc(-c4ccc(C(F)(F)F)cc4C(F)(F)F)nn3)cc-2n1 [Compound 1, 5-((6-(2,4-bis(trifluoromethyl)phenyl)pyridazin-3-yl)methyl)-2-(2-fluorophenyl)-5H-imidazo[4,5-c]pyridine] | 0.96 ± 0.39 nM | 3 ± 2 nM | EC50 ([1]; Hepatitis C virus, 72 h, Huh-luc replicon cells, 3 days): 0.4 ± 0.14 nM
